Hit rate of the full screen: of about 310,000 compounds, about 2,200 (0.71%) showed an effect of 50% or more. The effect is printed as a negative number. The list shows a part of the results.
These molecules were tested against human ether-à-go-go-related gene (hERG) potassium channel (human, UniProt Q12809) (assay: primary screen, population patch clamp on CHO cells stably expressing hERG).
human ether-à-go-go-related gene (hERG) potassium channel, sequence (Q12809 whole entry, looked up): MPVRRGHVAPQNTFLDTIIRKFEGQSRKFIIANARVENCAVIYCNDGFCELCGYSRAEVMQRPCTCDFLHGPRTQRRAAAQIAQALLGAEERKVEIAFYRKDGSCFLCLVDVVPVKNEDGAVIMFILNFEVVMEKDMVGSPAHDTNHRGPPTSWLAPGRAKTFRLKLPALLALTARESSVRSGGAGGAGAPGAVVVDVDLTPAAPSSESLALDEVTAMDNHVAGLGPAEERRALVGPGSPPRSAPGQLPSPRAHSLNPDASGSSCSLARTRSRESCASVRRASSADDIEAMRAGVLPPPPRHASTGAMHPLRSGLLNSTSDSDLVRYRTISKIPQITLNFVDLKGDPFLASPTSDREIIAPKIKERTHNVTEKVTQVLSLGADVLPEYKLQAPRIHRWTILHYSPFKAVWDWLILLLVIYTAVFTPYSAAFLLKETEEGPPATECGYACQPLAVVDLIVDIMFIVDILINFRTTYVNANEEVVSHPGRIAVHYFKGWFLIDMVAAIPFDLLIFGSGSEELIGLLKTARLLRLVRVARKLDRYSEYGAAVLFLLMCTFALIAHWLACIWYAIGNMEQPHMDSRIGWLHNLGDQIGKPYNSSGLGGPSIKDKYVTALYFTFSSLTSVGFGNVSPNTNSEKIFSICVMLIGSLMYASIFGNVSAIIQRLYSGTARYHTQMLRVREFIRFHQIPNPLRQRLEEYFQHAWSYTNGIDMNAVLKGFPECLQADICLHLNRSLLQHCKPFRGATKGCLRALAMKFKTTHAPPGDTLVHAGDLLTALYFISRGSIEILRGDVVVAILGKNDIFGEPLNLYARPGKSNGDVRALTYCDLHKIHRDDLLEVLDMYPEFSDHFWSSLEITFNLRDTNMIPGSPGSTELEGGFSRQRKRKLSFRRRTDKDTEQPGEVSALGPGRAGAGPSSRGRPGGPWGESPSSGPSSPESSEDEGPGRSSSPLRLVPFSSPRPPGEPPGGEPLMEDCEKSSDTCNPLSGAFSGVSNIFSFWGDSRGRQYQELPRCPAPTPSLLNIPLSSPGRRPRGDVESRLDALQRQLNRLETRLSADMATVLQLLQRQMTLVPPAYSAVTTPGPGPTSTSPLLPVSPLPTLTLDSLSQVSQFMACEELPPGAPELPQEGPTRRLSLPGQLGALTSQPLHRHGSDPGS

| SMILES | hERG current change (%, negative = inhibition) at 1uM [%] |
| --- | --- |
| O=C(N/N=C/c1ccc(-c2ccccc2[N+](=O)[O-])o1)c1cccnc1 | -3.73 |
| CN(C)CCCC(=O)c1ccc2c(c1)OCO2.Cl | 11 |
| Cc1ccc(S(=O)(=O)N(CC(=O)Nc2ccccc2C(=O)O)c2ccccc2C)cc1 | 21.1 |
| CS(=O)(=O)N(CC(=O)Nc1ccc(F)cc1F)c1cccc([N+](=O)[O-])c1 | -7.02 |
| CC(C)(C)OC(=O)N/N=C/c1ccc(N2CCOCC2)s1 | 12.7 |
| O=C(NNC(=O)c1cc2cc(Br)ccc2oc1=O)c1ccc(O)cc1 | 4.44 |
| O=C(NCc1ccccc1CN1CCCC1)c1cccc(N2CCCC2=O)c1 | -0.539 |
| COc1cc(OC)cc(C(=O)NNC(=O)c2ccc(S(=O)(=O)N(C)c3ccccc3OC)cc2)c1 | 13.2 |
| Cc1ccccc1NC(=O)c1onc2c1CCCC2 | -1.91 |
| Cc1ccc(-c2nc3ccccc3c(=O)n2NC(=O)COc2ccccc2)cc1 | 9.19 |
| O=C(CN1CCCCCC1)Nc1ccc(F)c(F)c1.O=C(O)C(=O)O | -5.86 |
| Cc1[nH]nc2c1C(c1ccc(-c3ccc(Cl)cc3)o1)C(C#N)=C(N)O2 (stereo not shown) | 1.04 |
| Cc1ccccc1NC(=O)C1CCCN(S(=O)(=O)c2ccc(-n3cnnn3)cc2)C1 (stereo not shown) | -0.16 |
| O=[N+]([O-])c1cc(NCCO)c(N2CCCCCC2)c2nonc12 | 13.6 |
| Cc1ccc(S(=O)(=O)N2CCC(C(=O)N/N=C/c3cccnc3)CC2)cc1 | -24.3 |
| CSCCC(NC(=O)/C(=C/c1ccco1)NC(=O)c1ccco1)C(=O)O (stereo not shown) | 10.3 |
| O=C(N1CCOCC1)N1CCN(S(=O)(=O)c2ccccc2)C1 | -11.9 |
| Cc1cc(F)ccc1S(=O)(=O)NCC1CC2CCC1C2 (stereo not shown) | 7.09 |
| N#Cc1c(Cl)nc2c(c1C#N)CCCC2 | 7.6 |
| CSCC[C@H](NC(=O)CCCn1nnc2ccccc2c1=O)C(=O)O | 4.89 |

| SMILES | hERG current change (%, negative = inhibition) at 1uM [%] |
| --- | --- |
| O=C(CS(=O)(=O)c1c[nH]c2ccccc12)N1CCCCCC1 | 2.8 |
| CC1CCCC(C)N1C(=O)COC(=O)CNC(=O)C12CC3CC(CC(C3)C1)C2 (stereo not shown) | 1.83 |
| CNC(=O)CSc1nnc(CCc2ccccc2)n1-c1ccccc1 | -5.9 |
| CC(=O)N(CCCN1CCOCC1)Cc1ccncc1.Cl | 17 |
| COC(=O)c1[nH]c2cc(OC)ccc2c1N=CN(C)C | 0.111 |
| O=C(c1cccs1)N1N=C(c2ccccc2)CC1c1ccccc1 (stereo not shown) | 9.97 |
| COc1cc(Nc2ccc(C(=O)O)cc2[N+](=O)[O-])cc(OC)c1 | -2.81 |
| COc1cc(NS(=O)(=O)c2cccc3nsnc23)cc(OC)c1 | 10.8 |
| CCCCN1C(=O)Nc2ccccc2S1=O (stereo not shown) | 9.1 |
| Oc1ccc2ccccc2c1C1Nc2cccc3cccc(c23)N1 | 7.9 |
| CN(CCC#N)C(=O)CSc1nnc(-c2ccco2)n1N | 8.84 |
| CC1CC(C)CN(CCCNC(=O)c2ccc3c(c2)NC(=O)CS3)C1 (stereo not shown) | 23 |
| CSc1ccccc1NC(=O)c1ccncc1 | -3.26 |
| CCOC(=O)C1=C(C)NC(=O)N(C(C)=O)C1c1ccc(Cl)cc1 (stereo not shown) | -6.25 |
| O=C(O)/C(=C\c1ccc2ccccc2c1)c1cccc2ccccc12 | 6.84 |
| O=C(CCS(=O)(=O)CCN1CCOCC1)NCNC(=O)CCS(=O)(=O)CCN1CCOCC1 | 12.2 |
| O=C(O)c1cc(S(=O)(=O)N2CCCCC2)sc1Cl | 9.79 |
| C=CCn1c(SCC(=O)NNC(=S)Nc2ccccc2)nnc1-c1ccccc1 | 11.1 |
| CCS(=O)(=O)N1Cc2ccccc2CC1C(=O)N(C)CC(=O)Nc1ccc(OC)cc1 (stereo not shown) | 9.92 |
| CCC(=O)Nc1ccc(NC(=O)c2cccc3ccccc23)cc1 | 16.4 |

| SMILES | hERG current change (%, negative = inhibition) at 1uM [%] |
| --- | --- |
| C/C=C/c1ccc(OCC(=O)OCC2=C(C(=O)OCC)C(C)NC(=O)N2)c(OC)c1 (stereo not shown) | 13.9 |
| COc1cccc(CN2CC(C(=O)NCC3CCOCC3)CCC2=O)c1 (stereo not shown) | 15.2 |
| O=C(CNC(=O)c1ccc(Cl)cc1Cl)OCc1nnc(-c2ccccc2)o1 | 10.4 |
| Cc1cc(N2CCN(C(=O)OC(C)(C)C)CC2)n2ncnc2n1 | -2.37 |
| COc1ccc2c(c1)c(=O)c(C(=O)c1ccc(F)cc1)cn2CC(=O)Nc1ccc(F)cc1 | 6.3 |
| CC(C)CC(NC(=O)OC(C)(C)C)c1cn([C@@H](Cc2cc3ccccc3[nH]2)C(=O)N2CCN(C(=O)OC(C)(C)C)CC2)nn1 (stereo partly shown) | -0.731 |
| CC(O)CNCCCOc1ccccc1OCc1ccccc1.O=C(O)C(=O)O (stereo not shown) | -3.01 |
| O=C(CCCNC(=O)/C(=C\c1ccccc1F)NC(=O)c1ccccc1)OCc1ccccc1 | 4.55 |
| Cl.Cn1c(=O)c2c(ncn2CCNC2=NCCCCC2)n(C)c1=O | -2.04 |
| CCOc1ccc2nc3sc(C(=O)N4CCOCC4)c(N)c3cc2c1 | -0.713 |
| CCSc1nnc(COc2ccccc2)n1CC | 9.43 |
| CCOc1ccccc1NC(=O)NCc1ccccc1 | 1.71 |
| CC1(/[N+]([O-])=C/c2ccc(F)cc2)CCCCC1=O (stereo not shown) | 11.7 |
| CCOC(=O)c1c(C)[nH]c(C(=O)CN2CCN(CC)CC2)c1C.O=C(O)C(=O)O | 9.19 |
| CCn1c(CNC(=O)c2ccc(F)cc2)cc2ccccc21 | 9.6 |
| COc1ccc(OCc2nn[nH]n2)cc1 | 10.5 |
| COc1ccc(CN2C[C@H](C)[C@@H](CC(=O)NCc3ccccc3)C2=O)cc1 | 6.23 |
| Nc1nonc1-n1nnc(C(=O)N/N=C/c2ccc(Cl)cc2)c1-c1ccc2c(c1)OCO2 | 35.6 |

Reference: article PMC4336329 (PLoS ONE, 2015)
